In the supplement of paper PMC11125491:
± gives the standard deviation of the averaged measurements. Growth of baker's yeast expressing single-residue variants of Pneumocystis jirovecii dihydrofolate reductase in 8.8 or 44 µM methotrexate (about 75% and 90% inhibition of the wild type). Selection coefficient per generation; 0 = like wild type, above 0 = less sensitive, below 0 = more sensitive or loss of function. No active / inactive call per row; the paper calls resistant above 0.220 (8.8 µM) or 0.243 (44 µM) together with a significance test. At 44 µM about 15% of codons end with one read or none, so the lowest values are floors (replicate rank correlation 0.74; 0.94 at 8.8 µM).

B1: UniProt A0EPZ9; numbered along this chain (parent)
chain: MDWQKSLTLIVALTLSRGIGLKNDLPWKLKSDMMFFSRVTSGLLVTRSTGQMNVVLMGRKTWESLPAHSRPLKNRINVVISRQEVLDLGGGAYHARSLDDALALLSQIYDSTSKIQLNRVFVIGGGELCKAAMEHSRLNRIIATVIHNEVDCDVFFPIDFRSSQSCLPWRKQDHSVLEAWVGSKVPQGKINENGFIYEFEMWIRDI

Variants of: B1
Test: selection coefficient against synonymous wild-type codons (log2 per generation); higher = faster growth than wild type
Settings: with Saccharomyces cerevisiae carrying the variant on a plasmid
Procedure: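 Pooled growth of yeast carrying single-residue variants of P. jirovecii dihydrofolate reductase (own DFR1 gene intact), two passages at 30 °C, three cultures, sequenced before and after. Codons with under 15 starting reads are left out; codons of one change are averaged.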

Row | Variant | selection coefficient against synonymous wild-type codons (log2) (methotrexate 8.8 µM) | selection coefficient against synonymous wild-type codons (log2) (methotrexate 44 µM)
1 | Y93M | -0.162 ± 0.048 | -0.248 ± 0.16
2 | Y93C | -0.546 ± 0.09 | -0.337 ± 0.069
3 | Y93K | -0.453 ± 0.07 | -0.332 ± 0.047
4 | Y93P | -0.55 ± 0.056 | -0.0484 ± 0.057
5 | Y93G | -0.705 ± 0.11 | -0.237 ± 0.072
6 | Y93D | -0.681 ± 0.078 | -0.265 ± 0.044
7 | Y93L | -0.0167 ± 0.038 | 0.00584 ± 0.058
8 | Y93V | -0.321 ± 0.077 | -0.279 ± 0.11
9 | Y93A | -0.603 ± 0.17 | -0.173 ± 0.19
10 | Y93F | -0.14 ± 0.021 | -0.146 ± 0.2
11 | Y93N | -0.489 ± 0.039 | 0.0117 ± 0.039
12 | Y93R | -0.457 ± 0.12 | -0.256 ± 0.074
13 | Y93T | -0.454 ± 0.093 | -0.302 ± 0.033
14 | Y93Q | -0.424 ± 0.12 | -0.136 ± 0.056
15 | Y93W | -0.251 ± 0.055 | -0.266 ± 0.11
16 | Y93E | -0.534 ± 0.15 | -0.36 ± 0.026
17 | Y93S | -0.587 ± 0.14 | -0.184 ± 0.34
18 | Y93H | -0.0327 ± 0.072 | -0.0265 ± 0.086
19 | Y93I | -0.0526 ± 0.058 | -0.0702 ± 0.048
20 | S97P | -0.541 ± 0.12 | -0.174 ± 0.12

Row | Variant | selection coefficient against synonymous wild-type codons (log2) (methotrexate 8.8 µM) | selection coefficient against synonymous wild-type codons (log2) (methotrexate 44 µM)
21 | S97Y | -0.687 ± 0.12 | -0.341 ± 0.037
22 | S97E | -0.792 ± 0.044 | -0.288 ± 0.04
23 | S97R | -0.595 ± 0.11 | -0.182 ± 0.064
24 | S97A | -0.647 ± 0.082 | -0.144 ± 0.07
25 | S97D | -0.224 ± 0.05 | -0.294 ± 0.12
26 | S97C | -0.326 ± 0.063 | -0.224 ± 0.14
27 | S97W | -0.545 ± 0.16 | -0.113 ± 0.035
28 | S97M | -0.697 ± 0.031 | -0.0936 ± 0.17
29 | S97T | -0.164 ± 0.044 | 0.107 ± 0.41
30 | S97G | -0.447 ± 0.12 | -0.222 ± 0.087
31 | S97I | -0.749 ± 0.046 | -0.245 ± 0.061
32 | S97V | -0.654 ± 0.024 | -0.152 ± 0.057
33 | S97F | -0.61 ± 0.16 | -0.264 ± 0.057
34 | S97H | -0.55 ± 0.09 | -0.197 ± 0.16
35 | S97L | -0.733 ± 0.083 | -0.273 ± 0.069
36 | S97K | -0.679 ± 0.092 | -0.219 ± 0.029
37 | S97Q | -0.706 ± 0.034 | -0.203 ± 0.043
38 | S97N | -0.253 ± 0.06 | -0.189 ± 0.11
39 | L98M | -0.231 ± 0.016 | -0.202 ± 0.2
40 | L98D | -0.673 ± 0.02 | 0.172 ± 0.54

Row | Variant | selection coefficient against synonymous wild-type codons (log2) (methotrexate 8.8 µM) | selection coefficient against synonymous wild-type codons (log2) (methotrexate 44 µM)
41 | L98A | -0.608 ± 0.16 | -0.307 ± 0.088
42 | L98C | -0.77 ± 0.057 | -0.266 ± 0.019
43 | L98H | -0.579 ± 0.078 | -0.0772 ± 0.064
44 | L98F | -0.00854 ± 0.045 | 0.00767 ± 0.092
45 | L98I | 0.136 ± 0.031 | 0.25 ± 0.031
46 | L98Q | -0.769 ± 0.032 | -0.265 ± 0.11
47 | L98N | -0.639 ± 0.046 | -0.18 ± 0.054
48 | L98E | -0.795 ± 0.046 | -0.29 ± 0.048
49 | L98R | -0.729 ± 0.076 | -0.269 ± 0.045
50 | L98K | -0.658 ± 0.053 | -0.155 ± 0.035
51 | L98S | -0.669 ± 0.17 | -0.24 ± 0.1
52 | L98G | -0.696 ± 0.082 | -0.193 ± 0.13
53 | L98P | -0.774 ± 0.09 | -0.299 ± 0.072
54 | A95L | -0.745 ± 0.087 | -0.325 ± 0.075
55 | A95M | -0.681 ± 0.15 | -0.272 ± 0.16
56 | A95R | -0.612 ± 0.11 | -0.207 ± 0.097
57 | A95G | -0.635 ± 0.13 | -0.202 ± 0.1
58 | A95Q | -0.765 ± 0.11 | -0.374 ± 0.036
